One data set concerns the target T1, ROR1 on Jeko-1 cells (Homo sapiens, UniProt Q01973).
T1 construct: The Jeko-1 cell line, from mantle cell lymphoma, is a suspension cell line; host or cells: Jeko-1 (human mantle cell lymphoma)
Description: Binding to ROR1-positive Jeko-1 cells (flow cytometry receptor binding assay). The conditions noted are these: 20 minutes on ice, PE secondary antibody. Here is the method: (§1) The binding to tumor cells by antibodies Ab1 and 4A5, as well as ADC constructs derived from those antibodies (ADC-A and ADC-T), was evaluated. First, the binding of Ab1 to two ROR1-positive human tumor cell lines representing different cancer types was tested. The Jeko-1 cell line, from mantle cell lymphoma, is a suspension cell line, while the MDA-MB-231 cell line, from triple negative breast cancer, is an adherent cell line. The cell lines have different levels of ROR1 expression, with Jeko-1 cells displaying about 13507 cell surface copies and the MDA-MB-231 cells displaying about 21015 cell surface copies. The Jeko-1 (ATCC Cat. No. CRL-3006) and MDA-MB-231 (ATCC Cat. No. […]) cell lines were purchased from the American Type Culture Collection and were maintained according to the ATCC recommendations.
(§2) Jeko-1 cells (FIG. 2A) or MDA-MB-231 cells (FIG. 2B) were incubated with 0, 1, 10, 100, or 1000 ng/mL of Ab1 for 20 minutes on ice. After washing off unbound antibody, the cells were incubated with secondary anti-human IgG antibody labeled with phycoerythrin (PE) for an additional 20 minutes. The amount of PE fluorescence was measured using the BDFACS Verse analyzer and FlowJo V10 software. The PE signal for the highest concentration was used as the maximal binding signal to calculate the % maximal binding. EC50 was calculated using GraphPad Prism 7. […]

A further data set concerns the target T2, ROR1 on MDA-MB-231 cells (Homo sapiens, UniProt Q01973).
T2 construct: the MDA-MB-231 cell line, from triple negative breast cancer, is an adherent cell line; host or cells: MDA-MB-231 (human triple negative breast cancer)
Description: Binding to ROR1-positive MDA-MB-231 cells (flow cytometry receptor binding assay). Particulars: 20 minutes on ice, PE secondary antibody. Here is the method:
as §1, §2

The next data set deals with Jeko-1 cells. The experiment in a line: Internalization by Jeko-1 cells (pulse-chase flow cytometry). It is filed as cell-based, human. As to the method: Multiple methods were used to determine antibody internalization. In one approach, internalization was measured using a pulse-chase methodology that quantitates non-internalized, cell surface antibody at 15, 30, 60, 120, and 240 minutes using flow cytometry. Jeko-1 cells were grown and harvested prior to confluency, washed with cold PBS and resuspended at 1×10^7 in cold FACS buffer (PBS+2% FBS-Fisher/Gibco Cat. No. 16140071). 1×10^6 cells were added to microcentrifuge tubes or wells. Internalization of Ab1 and ADC constructs by the cells was determined at saturating antibody concentrations, using 30 μg/ml for Jeko-1 cells and 100 μg/mL for MDA-MB-231 cells. 10× stock solutions of ADC constructs or Ab1 were prepared (300 μg/ml for use with Jeko-1 cells or 1 mg/ml for use with MDA-MB-231 cells) and 10 μL of sample or buffer control was added to the following (adding additional tubes for each time point): • a) Unstained • b) Secondary antibody only • c) Negative Control hIgG mAb at 30 μg/ml—time 0 • d) Positive Control ADC construct or Ab1 at 30 μg/ml—time 0 • e) ADC construct or Ab1—time point 1 • f) ADC construct or Ab1—time point 2, etc.
(§3) Cells and antibody were incubated on ice for 20 minutes, spun at 300×g for 4 minutes, washed twice with 200 μL of FACS buffer, and resuspended in 100 μL of FACS buffer. The samples were incubated at 37° C. for 15, 30, 60, 120, and 240 minutes, as indicated above. Internalization was terminated by transferring the samples to ice. A time course for antibody internalization was generated for each test article as described above, after which antibody remaining on the cell surface was detected using a PE-labeled secondary antibody. Cells were spun at 250×g, washed twice with FACS buffer and resuspended in 100 μL of FACS buffer. […] The median fluorescent intensity (MFI) was quantitated and the degree of receptor internalization was determined using the amount of the antibody or ADC present at each time point when compared to the amount present at time=0. […]

The test system of data set [1] is MDA-MB-231 cells. Description: Internalization by MDA-MB-231 cells (pulse-chase flow cytometry). It is filed as cell-based, human. The conditions noted are these: MDA-MB-231, in less than 60 minutes. Here is the method: Multiple methods were used to determine antibody internalization. In one approach, internalization was measured using a pulse-chase methodology that quantitates non-internalized, cell surface antibody at 15, 30, 60, 120, and 240 minutes using flow cytometry. Jeko-1 cells were grown and harvested prior to confluency, washed with cold PBS and resuspended at 1×10^7 in cold FACS buffer (PBS+2% FBS-Fisher/Gibco Cat. No. 16140071). 1×10^6 cells were added to microcentrifuge tubes or wells. Internalization of Ab1 and ADC constructs by the cells was determined at saturating antibody concentrations, using 30 μg/ml for Jeko-1 cells and 100 μg/mL for MDA-MB-231 cells. […]
as §3, with “The samples were incubated at 37° C. for 15, 30, 60, 120, and 240 minutes, as indicated above. Internalization was terminated by transferring the samples to ice.” left out, “antibody.” for “antibody. Cells were spun at 250×g, washed twice with FACS buffer and resuspended in 100 μL of FACS buffer.”
A general note: A flow cytometer gives signals particle by particle.

The target of data set [2] is T3, cell surface ROR1 on Jeko-1 cells (Homo sapiens, UniProt Q01973).
T3 construct: The Jeko-1 cell line, from mantle cell lymphoma, is a suspension cell line; host or cells: Jeko-1 (human mantle cell lymphoma)
The experiment in a line: Cell surface ROR1 expression during internalization, Jeko-1 cells. It is filed as cell-based. The conditions noted are these: up to 4 hours. As to the method:
Internalization of antibodies was measured using pulse-chase approaches that detected non-internalized, cell surface antibody at various time points (2, 5, 10, 15, 20, 30, 60, 120 and 240 minutes). In this study, in addition to measuring non-internalized cell surface antibody, the expression of ROR1 on the cell surface was quantitated either by (1) re-staining with Ab1 and a secondary antibody or (2) by using a second, labeled anti-ROR1 antibody that recognizes an epitope distinct from that of Ab1.
For the first approach, internalization of Ab1 on Jeko-1 cells was performed as described in Example 3 (one sample was processed at each time point to quantitate antibody remaining on the cell surface). Additionally, a second sample at each time point was rapidly re-stained using saturating levels of Ab1 (30 μg/mL) while maintaining the cells on ice. Subsequently, the cells were washed and surface antibody was quantitated using the same secondary antibody used for internalization measurements.
An alternative approach to measuring cell surface ROR1 expression in conjunction with Ab1 internalization studies was tested. Specifically, cell surface ROR1 expression was quantitated at 0, 0.5, 1, 2, and 4 hours by staining cells directly with a labeled anti-ROR1 antibody that binds an epitope distinct from that of Ab1.

For a further data set, the system named is DLBCL-GCB PDX. Description: DLBCL-GCB PDX mouse model. The data set is classed as in vivo. The conditions noted are these: ADC-A 5 mg/kg IV qw; Ab1 10 mg/kg IV qw; venetoclax 50 mg/kg PO qd; 24 days. Here is the method: Germinal center B-cell like diffuse large B-cell lymphoma (DLBCL-GCB) cells were engrafted subcutaneously into mice, and the engrafted mice were randomized into five groups, 6 mice/group. The groups were vehicle control, 10 mg/kg Ab1, 50 mg/kg venetoclax, 10 mg/kg Ab1 plus 50 mg/kg venetoclax, and 5 mg/kg ADC-A. Ab1 and ADC-A were administered IV, qw and venetoclax was administered PO qd.

Data set [3] has as its system MDA-MB-231 cells. Description: Internalization by immunofluorescent staining, MDA-MB-231 cells. It is filed as cell-based, human. Here is the method: Internalization of Ab1 was also characterized using conventional immunofluorescent staining methods and MDA-MB-231 cells. In this approach, Ab1 was loaded at the cell surface and the cells were subsequently fixed and surface Ab1 was quantitated. In addition, a second sample of the cells was permeabilized and total Ab1 (surface and intracellular) was quantitated. In this protocol, the primary antibody was allowed to incubate without a secondary antibody, eliminating the possibility that the secondary antibody might influence internalization. Surface staining was observed. After permeabilization, clear and distinct punctate intracellular staining of Ab1 was observed. […] This finding is consistent with a mode of antibody internalization that primarily occurs by the lysosome/endosome pathway. Finally, the rate of internalization was quantitated. […] The newly expressed cell surface receptor may be recycled, expressed from intracellular stores, and/or newly synthesized. The extent and character of co-localization of Ab1 was similar to EGFR, showing substantially lysosomal co-localization after 4 hours.

In a further data set the test system is OCI-Ly18. The experiment in a line: Cytotoxicity in vitro (CellTiter-Glo viability), OCI-Ly18. It is filed as cell-based, human. The conditions noted are these: OCI-Ly18 (DLBCL), 72 hours. For orientation: ATP-based viability assays read luminescence as a measure of living cells.
Another data set relates to U2932. The experiment in a line: Cytotoxicity in vitro (CellTiter-Glo viability), U2932. It is filed as cell-based, human. Particulars: U2932 (DLBCL), 72 hours.
A further data set concerns OCI-Ly19. Description: Cytotoxicity in vitro (CellTiter-Glo viability), OCI-Ly19. It is filed as cell-based, human. The conditions noted are these: OCI-Ly19 (DLBCL), 72 hours.
For the next data set, the system named is KMS-PE. The experiment in a line: Cytotoxicity in vitro (CellTiter-Glo viability), KMS-PE. It is filed as cell-based, human. The conditions noted are these: KMS-PE (KMS-12PE in Table 9.3) (MM), 72 hours.
A further data set concerns RPMI-8229. Description: Cytotoxicity in vitro (CellTiter-Glo viability), RPMI-8229. It is filed as cell-based, human. The conditions noted are these: RPMI-8229 (MM), 72 hours.
A further data set concerns OPM2. The experiment in a line: Cytotoxicity in vitro (CellTiter-Glo viability), OPM2. The data set is classed as cell-based, human. Particulars: OPM2 (MM), 72 hours.
The next data set concerns L363. The experiment in a line: Cytotoxicity in vitro (CellTiter-Glo viability), L363. The conditions noted are these: L363 (MM), 72 hours. It is filed as cell-based, human.
The subject of another data set is NCI-H929. Description: Cytotoxicity in vitro (CellTiter-Glo viability), NCI-H929. Particulars: NCI-H929 (MM), 72 hours. It is filed as cell-based, human.
In a further data set the test system is HCC1806. The experiment in a line: Cytotoxicity in vitro (CellTiter-Glo viability), HCC1806. It is filed as cell-based, human. The conditions noted are these: HCC1806 (TNBC), 72 hours.
A further data set has as its system MDA-MB-231. Description: Cytotoxicity in vitro (CellTiter-Glo viability), MDA-MB-231. The data set is classed as cell-based, human. The conditions noted are these: MDA-MB-231 (TNBC), 72 hours.
A further data set relates to Hs578T. Description: Cytotoxicity in vitro (CellTiter-Glo viability), Hs578T. The data set is classed as cell-based, human. The conditions noted are these: Hs578T (TNBC), 72 hours.
For the next data set, the system named is DU4475. The experiment in a line: Cytotoxicity in vitro (CellTiter-Glo viability), DU4475. The conditions noted are these: DU4475 (TNBC), 72 hours. The data set is classed as cell-based, human.
Another data set concerns OvCar4. Description: Cytotoxicity in vitro (CellTiter-Glo viability), OvCar4. The data set is classed as cell-based, human. The conditions noted are these: OvCar4 (Ovarian), 72 hours.
For a further data set, the system named is ES2. The experiment in a line: Cytotoxicity in vitro (CellTiter-Glo viability), ES2. The data set is classed as cell-based, human. The conditions noted are these: ES2 (Ovarian), 72 hours.
Another data set relates to A2780. The experiment in a line: Cytotoxicity in vitro (CellTiter-Glo viability), A2780. It is filed as cell-based, human. Particulars: A2780 (Ovarian), 72 hours.

Values joined by “and” are separate entries in the source; they are usually repeats but may differ in a detail not shown here. Identical values can stand only once.

T1 sequence (Q01973 30-937): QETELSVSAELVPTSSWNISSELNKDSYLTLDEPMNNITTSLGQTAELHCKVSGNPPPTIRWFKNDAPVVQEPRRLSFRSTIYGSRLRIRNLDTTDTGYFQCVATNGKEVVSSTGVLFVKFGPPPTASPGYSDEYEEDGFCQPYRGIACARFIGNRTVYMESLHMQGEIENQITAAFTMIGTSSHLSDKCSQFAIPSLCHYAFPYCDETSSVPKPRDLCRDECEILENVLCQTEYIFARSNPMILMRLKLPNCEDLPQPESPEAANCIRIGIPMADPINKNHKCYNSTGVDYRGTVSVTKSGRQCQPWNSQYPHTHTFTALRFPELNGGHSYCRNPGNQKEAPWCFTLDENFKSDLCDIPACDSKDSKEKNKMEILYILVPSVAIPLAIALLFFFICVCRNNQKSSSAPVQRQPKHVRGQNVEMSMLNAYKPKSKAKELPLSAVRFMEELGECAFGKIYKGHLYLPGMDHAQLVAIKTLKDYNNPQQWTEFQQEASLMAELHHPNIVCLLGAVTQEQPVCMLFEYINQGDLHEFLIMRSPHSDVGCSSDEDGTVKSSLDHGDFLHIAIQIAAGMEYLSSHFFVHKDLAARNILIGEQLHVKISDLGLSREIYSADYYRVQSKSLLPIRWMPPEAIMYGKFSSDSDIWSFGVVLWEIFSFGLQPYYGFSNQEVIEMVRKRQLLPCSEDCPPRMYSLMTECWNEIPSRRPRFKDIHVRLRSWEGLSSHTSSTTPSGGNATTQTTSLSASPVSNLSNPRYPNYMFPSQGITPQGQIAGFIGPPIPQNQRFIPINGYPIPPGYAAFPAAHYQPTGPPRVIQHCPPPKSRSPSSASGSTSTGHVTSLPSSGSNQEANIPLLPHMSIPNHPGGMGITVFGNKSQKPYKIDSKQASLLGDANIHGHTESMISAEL
T2 sequence (Q01973 30-937): as above
T3 sequence (Q01973 30-937): as above

B1: Ab1 (antibody)
heavy: QVQLQESGPGLVKPSQTLSLTCTVSGYAFTAYNIHWVRQAPGQGLEWMGSFDPYDGGSSYNQKFKDRLTISKDTSKNQVVLTMTNMDPVDTATYYCARGWYYFDYWGHGTLVTVSS[skipping human IgG1 constant region]
light: DIVMTQTPLSLPVTPGEPASISCRASKSISKYLAWYQQKPGQAPRLLIYSGSTLQSGIPPRFSGSGYGTDFTLTINNIESEDAAYYFCQQHDESPYTFGEGTKVEIKRTVAAPSVFIFPPSDEQLKSGTASVVCLLNNFYPREAKVQWKVDNALQSGNSQESVTEQDSKDSTYSLSSTLTLSKADYEKHKVYACEVTHQGLSSPVTKSFNRGEC
B1: the “EC50 of binding to cells” value is 0.0136 µg/mL and 0.01639 µg/mL and 0.0165 µg/mL with ROR1 on Jeko-1 cells; 0.0328 µg/mL in the data set with ROR1 on MDA-MB-231 cells. The “Internalization of the bound antibody” value in the data set on Jeko-1 cells (Jeko-1, in less than 120 minutes) was 80-90%; in the data set on MDA-MB-231 cells [1], 80-90%. For the same molecule, the “cell surface ROR1 expression during treatment” value in [2] is on record as “restored to initial or slightly higher levels”. For the same molecule, the tumor response entry with DLBCL-GCB PDX is “ineffective”. The rate of internalization entry with MDA-MB-231 cells [3] (MDA-MB-231, continuous exposure to Ab1) is “the initial rate was approximately twice the average rate, and the terminal rate was approximately half the average rate”. For the same molecule, the “intracellular localization of internalized antibody” value in the data set on MDA-MB-231 cells [3] (MDA-MB-231, lysosome-specific tracker) was “co-localized with the lysosomal pathway”.

B2: ADC-B: Ab1 conjugated via SMCC to DM1 (conjugate)
heavy: B1 heavy
light: B1 light
B2: in the data set on Jeko-1 cells (Jeko-1 cells), the “internalization compared with Ab1 / ADC-A” value is “did not negatively impact binding or internalization”. In addition, the EC50 with OCI-Ly18 is 40 nM; in the data set with U2932, 53.9 nM; with OCI-Ly19, 40 nM; in the data set with KMS-PE, 72 nM; with RPMI-8229 it was 91 nM; in the data set with OPM2 it was 108 nM. Further, the EC50 in the data set with L363 is 177 nM; in the data set on NCI-H929 it was 90 nM; with HCC1806, 23.1 nM; with MDA-MB-231 it was 67.5 nM; with Hs578T, 11.7 nM; in the data set on DU4475 it was 105 nM. In addition, the results for the EC50 in the data set on OvCar4, with ES2 and in the data set with A2780 were 291 nM, 117 nM and 36 nM, respectively.

These data come from patent USRE50631E1, “ROR1 antibody immunoconjugates” (VelosBio Inc., priority 2017, dated 2025).
